Results from PubChem BioAssay AID504339 (National Center for Advancing Translational Sciences (NCATS), 2011).
Screen size: about 390,000 compounds; about 17,000 (4.4%) were called active. Inconclusive results, whose numbers are uncertain, are shown with a selection of clear calls. Calls follow the shape of the dose curve; as a rule, active = well fitted inhibition curve with a large enough effect; inconclusive = small, poorly fitted or top-dose-only effect; inactive = no such curve, though single readings can be large or run the other way. Potencies beside an inconclusive call are fits to weak or partial responses and may not hold up.

Target: Lysine-specific demethylase 4A (Homo sapiens) (UniProt O75164)
Chain of UniProt O75164 (O75164 whole entry, looked up, the tested form may be a part): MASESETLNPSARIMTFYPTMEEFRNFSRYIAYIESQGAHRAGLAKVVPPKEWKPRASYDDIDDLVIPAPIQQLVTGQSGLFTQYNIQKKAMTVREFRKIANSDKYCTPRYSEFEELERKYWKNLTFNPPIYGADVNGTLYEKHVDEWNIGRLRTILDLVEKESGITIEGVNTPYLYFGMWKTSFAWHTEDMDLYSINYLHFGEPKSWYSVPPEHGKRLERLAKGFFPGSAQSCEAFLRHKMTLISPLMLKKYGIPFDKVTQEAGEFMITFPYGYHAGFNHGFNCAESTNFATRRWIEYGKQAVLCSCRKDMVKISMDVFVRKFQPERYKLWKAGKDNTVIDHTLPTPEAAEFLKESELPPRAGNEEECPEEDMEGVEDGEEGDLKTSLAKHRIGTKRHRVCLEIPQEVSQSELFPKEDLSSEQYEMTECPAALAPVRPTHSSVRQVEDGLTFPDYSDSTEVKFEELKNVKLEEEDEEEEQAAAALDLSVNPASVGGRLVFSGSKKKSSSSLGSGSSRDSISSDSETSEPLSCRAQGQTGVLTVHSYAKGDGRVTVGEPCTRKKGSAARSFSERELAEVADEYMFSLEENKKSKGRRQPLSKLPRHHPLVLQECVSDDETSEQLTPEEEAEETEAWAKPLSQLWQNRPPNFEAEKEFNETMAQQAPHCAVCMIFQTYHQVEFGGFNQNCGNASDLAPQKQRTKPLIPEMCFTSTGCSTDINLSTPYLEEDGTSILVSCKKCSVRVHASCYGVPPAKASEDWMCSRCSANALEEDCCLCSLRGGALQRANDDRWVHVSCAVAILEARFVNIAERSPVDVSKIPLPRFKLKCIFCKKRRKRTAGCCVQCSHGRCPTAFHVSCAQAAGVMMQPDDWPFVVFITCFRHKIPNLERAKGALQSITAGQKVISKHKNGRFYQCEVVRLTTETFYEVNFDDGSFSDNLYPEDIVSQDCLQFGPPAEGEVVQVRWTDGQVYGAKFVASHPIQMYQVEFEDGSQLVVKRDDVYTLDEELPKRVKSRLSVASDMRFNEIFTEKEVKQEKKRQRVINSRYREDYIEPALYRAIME
Assay: qHTS Assay for Inhibitors of JMJD2A-Tudor Domain; also: nearly all actives have a fitted effect of over 50% in size
Settings: AlphaScreen JMJD2A-Tudor / H3K4me3 peptide binding; series mostly up to 114 µM
Potency is read from the fitted curve at half-maximal effect; tags tell the direction and shape of the fitted curve.

SMILES	Potency
CC(C)CN1CCC(C(=O)NCC2CCCO2)CC1 (stereo unspecified)	active: 7.08 µM
COc1ccc(C(=O)Oc2ccc3ccc(=O)oc3c2)cc1	inconclusive: 6.31 µM [inhibitor, full curve, poor fit]
COc1ccc(NC2CS(=O)(=O)CC2NCc2ccco2)cc1 (stereo unspecified)	inconclusive: 89.1 µM [inhibitor, single point]
Cc1cc(Cl)ccc1Oc1ncc(CN2CCN(c3ccccc3)CC2)s1	inconclusive: 79.4 µM [inhibitor, partial curve]
S=C(NCc1ccc2[nH]c3c(c2c1)CCCC3)Nc1ccccc1Cl	active: 50.1 µM
COc1ccccc1N1CCN(C(=O)c2cc3c(s2)CCCCC3)CC1	inconclusive: 28.2 µM [inhibitor, partial curve]
CC(NCC1COc2ccccc2O1)C1COc2ccccc2O1 (stereo unspecified)	active: 3.98 µM
COc1ccccc1N1CCN(CC(=O)c2ccc(F)cc2)CC1	active: 14.1 µM
Cc1ccc(S(=O)(=O)N2CCN(c3nc(-c4ccc(CN5CCNCC5)s4)nc4ccccc34)CC2)cc1	inconclusive: 50.1 µM [inhibitor, partial curve]
COc1ccc2c(=O)c3c(=O)n(Cc4ccco4)c(-c4ccc(C)cc4)nc3oc2c1	active: 89.1 µM
CCN(CC)CCOC(=O)C1(C2CCCCC2)CCCCC1	inactive
COc1ccc(S(=O)(=O)/N=C2/NC(=O)/C(=C\c3cc(OC)c(OC)cc3[N+](=O)[O-])S2)cc1	inactive
Cc1ccccc1-n1nc(CSc2nc3ccccc3[nH]2)c(-c2ccccc2)c1N	inconclusive: 50.1 µM [inhibitor, partial curve]
COc1ccc(C)cc1-n1nnnc1SCC1CCCO1 (stereo unspecified)	inconclusive: 20 µM [inhibitor, single point]
COc1ccc(Oc2cn[nH]c2-c2ccc(O)cc2O)cc1	inconclusive: 56.2 µM [inhibitor, partial curve, poor fit]
Cc1ccc(C)c(N2CCN(C(=O)Cc3ccc(-n4c(=O)[nH]c5ccsc5c4=O)cc3)CC2)c1	inconclusive: 79.4 µM [inhibitor, partial curve]
Cc1cccc(-n2c(-c3ccco3)nc3c(cnn3-c3ccccc3C)c2=O)c1	inconclusive: 89.1 µM [inhibitor, partial curve]
O=Cc1cn(CC(=O)N2CCCCCC2)c2ccccc12	inactive
N#Cc1nc(COc2ccc(Cl)cc2)oc1N1CCN(Cc2ccccc2)CC1	inconclusive: 44.7 µM [inhibitor, partial curve]
COc1cc(NC(=O)c2ccc3c(c2)C(=O)N(CCC(C)C)C3=O)c(C(=O)O)cc1OC	inconclusive: 56.2 µM [inhibitor, partial curve, poor fit]
CC(C)NC(=O)Nc1ccc2c(c1)C(=O)N([C@H](C)CO)C[C@@H](C)[C@@H](CN(C)C(=O)NC1CCCCC1)O2	inactive
CS(=O)(=O)N1CCc2cc(S(=O)(=O)NCc3ccccc3Cl)ccc21	inconclusive: 3.98 µM [inhibitor, single point]
CCn1c(=O)n(CC)c2cc(N3CCCC3)c(NC(=O)c3cccc(C)c3)cc21	inconclusive: 56.2 µM [inhibitor, partial curve]
Cc1cccc(Cn2c(C)c(C)c3cc(C(=O)NCc4ccco4)ccc32)c1	inconclusive: 22.4 µM [inhibitor, full curve]
CC(C)C(=O)Nc1c2c(nc3ccccc13)N(C)CC2	inactive
CCN(Cc1ccccc1)C(=O)CSc1ncn[nH]1	inactive

SMILES	Potency
Cn1cnc(S(=O)(=O)N2CCC(C(=O)NCc3ccccc3)CC2)c1	inactive
COCCNC(=O)C1CC(c2ccccc2C(F)(F)F)=NO1 (stereo unspecified)	inactive
CCN(CC)c1ccc(/C=N/N2CCN(Cc3ccc(C)cc3C)CC2)c(O)c1	active: 22.4 µM
CC(C)(Oc1ccc(Cl)cc1)C(=O)OCC(=O)N1CCCC1	inactive
O=C(C1CC1)N1CCN(c2ccnc3cc(Cl)ccc23)CC1	inactive
COc1cc(F)c(S(=O)(=O)N2CCN(S(=O)(=O)c3cccc(N)c3)CC2)c(F)c1	inactive
CCOc1ccccc1C(=O)NCC(c1ccc(N(C)C)cc1)N1CCc2ccccc21 (stereo unspecified)	active: 10 µM
CCOc1cc(-c2ccc(OC(=O)c3ccc(Cl)cc3)c(OC)c2)cc(=O)c2c(C)oc(C)c12	inconclusive: 50.1 µM [inhibitor, full curve, poor fit]
O=C(CSc1nnc(NC(=O)c2ccccc2)s1)NCC1CCCO1 (stereo unspecified)	inactive
CCc1c(C)nc2[nH]nc(NC(=O)C(F)(F)F)n2c1=O	active: 89.1 µM
CC(C)c1ccc(OCC(=O)NNC(=S)NC(=O)c2ccco2)c(Br)c1	inconclusive: 35.5 µM [inhibitor, full curve]
Cc1ccc(S(=O)(=O)Nc2cccc(C(=O)NCc3ccc(S(N)(=O)=O)cc3)c2)cc1	inactive
C/C(=N\N1C(=O)c2ccccc2NC1c1ccco1)c1ccccc1O (stereo unspecified)	inconclusive: 50.1 µM [inhibitor, partial curve]
CC1CCN(C(=O)COc2ccc(Nc3ccccc3)cc2)CC1	inconclusive: 7.94 µM [inhibitor, full curve, poor fit]
N#CC1(Nc2ccc(S(N)(=O)=O)cc2)CCCC1	inactive
Cc1ccc(-n2nc3ccc(NC(=O)/C=C/c4ccco4)cc3n2)cc1	inconclusive: 11.2 µM [inhibitor, full curve]
CCc1ccc(CN(C)C(=O)c2cc(COc3c(F)cccc3F)on2)cc1	inconclusive: 25.1 µM [inhibitor, single point]
O=C(Oc1ccccc1)c1ccc2nsnc2c1	inconclusive: 56.2 µM [inhibitor, partial curve]
O=C(CSc1nnc(SCc2ccccc2)s1)N/N=C/C=C/c1ccccc1[N+](=O)[O-]	inactive
COC(=O)C1=C(C)NC(=O)/C1=C\c1cc(C)n(-c2cccc(C)c2)c1C	active: 44.7 µM
CN1C(=O)C(C(=O)Nc2ccccc2F)c2ccccc21 (stereo unspecified)	inconclusive: 56.2 µM [inhibitor, partial curve, poor fit]
Cc1cc(C(F)(F)F)nc(SCc2ccc(C(=O)O)o2)n1	inconclusive: 89.1 µM [inhibitor, single point]
COc1ccc(Br)cc1S(=O)(=O)Nc1ncccc1C	inconclusive: 28.2 µM [inhibitor, full curve, poor fit]
CC(C)(C)c1ccc2c(c1)C(=O)c1ccccc1C2=O	active: 44.7 µM
COc1ccc(CCNC(=O)CSc2nc3ccccc3nc2Cc2ccc(Cl)cc2)cc1OC	inactive
COc1cc(CN2CCc3c([nH]c4ccccc34)C2)cc(OC)c1	active: 7.94 µM

SMILES	Potency
O=C(NCCS(=O)(=O)NCc1ccccn1)c1ccccc1	active: 2.82 µM
COc1ccc(N2C(=O)CN=C2Nc2nc(C)cc(C)n2)cc1	active: 44.7 µM
CC(C)Cn1c(-c2ccc(S(=O)(=O)N3CCCC3)cc2)csc1=Nc1ccccc1	inconclusive: 14.1 µM [inhibitor, full curve]
Cc1ccc(NC(=O)c2cc(-c3ccco3)on2)cc1C	inactive
COc1ccc(-c2c(NC(C)=O)n(C)c3ccccc3c2=O)cc1	inconclusive: 89.1 µM [inhibitor, single point]
Cc1nnsc1C(=O)N/N=C/c1c(F)cccc1Cl	inconclusive: 79.4 µM [inhibitor, partial curve]
Cc1nn(-c2ccccc2)c(C)c1C(=O)NCc1ccc(S(N)(=O)=O)cc1	inactive
CN(C)c1ccc(C(=O)Nc2nc3c(s2)CCCC3)cc1	active: 79.4 µM
Nc1[nH]c(N=NC(=O)c2ccccc2O)c2ccccc12	inconclusive: 100 µM [inhibitor, single point]
O=C(NC(=S)Nc1ccc(N2CCN(C(=O)c3ccccc3)CC2)cc1)c1cccs1	inconclusive: 50.1 µM [inhibitor, partial curve]
O=C(O)c1ccc(N2CC3CC(C2)c2cccc(=O)n2C3)c(NC(=S)Nc2ccc(Cl)cc2Cl)c1 (stereo unspecified)	inactive
Cc1cc(/C=C2\SC(=S)NC2=O)c(C)n1-c1ccccc1	active: 14.1 µM
O=C(O)c1cc2ccc3cccc4ccc(c1)c2c34	inactive
CCOc1ccc2nc(NC(=O)Nc3cccs3)sc2c1	inconclusive: 50.1 µM [inhibitor, partial curve]
N#CC1=C(N)OC2=C(CC/C2=C\c2ccccc2Cl)C1c1ccccc1Cl (stereo unspecified)	inconclusive: 39.8 µM [inhibitor, partial curve]
CN(C)C(=S)Nc1ccc(S(=O)(=O)N2CCCCC2)cc1	inactive
COc1ccc(/C=C/CN2CCC(n3nccc3NC(=O)C3CCCC3)CC2)cc1	inactive
Cc1nc2ccc(S(=O)(=O)NCC(=O)Nc3ccc(C)c(Cl)c3)cc2s1	inactive
O=[N+]([O-])c1ccc(Sc2ccccc2)nc1	inconclusive: 63.1 µM [inhibitor, partial curve, poor fit]
Cc1ccccc1C(=O)NC1(C(F)(F)F)C(=O)Nc2c1c(=O)[nH]c(=O)n2CCc1ccccc1 (stereo unspecified)	inactive
COc1ccc(-c2nc3c4ccccc4n(CC(=O)Nc4ccc(C(C)=O)cc4)c(=O)n3n2)cc1	active: 8.91 µM
O=C(N/C(=C\c1ccc(-c2ccccc2)o1)C(=O)N1CCOCC1)c1ccccc1	active: 56.2 µM
COc1cc(C(=O)OCC(=O)N2CCC(Cc3ccccc3)CC2)cc(OC)c1OC	inactive
Cc1ccc2c(c1)CC1(CN2C)C(=O)OC(C)(C)OC1=O	inconclusive: 17.8 µM [inhibitor, full curve, poor fit]
